Experimental findings from the supplement of paper PMC4604168 (melanoma cell lines) are described below.

Test systems include WM115; WM1716; WM1745; WM3526; WM3619; WM451Lu.
Experiment in all cases: cell count relative to DMSO control; melanoma cells; higher = more viable cells
What all share (settings): library dose: low library concentration; 72 h

The list shows a part of the results. Single values are uncertain, as repeats are few or missing.
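Further: cell number obtained by counting DAPI-stained nuclei in high-throughput microscope images with image analysis software, screen run in 1,536-well plates.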

Consider `Cc1cn(-c2cc(NC(=O)c3ccc(C)c(Nc4nccc(-c5cccnc5)n4)c3)cc(C(F)(F)F)c2)cn1` [nilotinib] + CC(C)(C)c1cnc(CSc2cnc(NC(=O)C3CCNCC3)s2)o1 [SNS-032] (first compound 0.2 µM, partner dose 0.01 µM), for which the cell count was determined as 108% in the experiment on WM115; 93.9% with WM1716; 95.8% in the experiment with WM1745; 93.8% in the experiment with WM3526; 91.2% with WM3619; 109% in the experiment with WM451Lu.

With `Cc1cn(-c2cc(NC(=O)c3ccc(C)c(Nc4nccc(-c5cccnc5)n4)c3)cc(C(F)(F)F)c2)cn1` [nilotinib] + C[C@@H](N)c1ccc(C(=O)Nc2ccnc3[nH]ccc23)cc1 [RKI983] (first compound 0.2 µM, partner dose 0.4 µM), the cell count in the experiment with WM115 worked out at 99.1%; in the experiment on WM1716, 51%; in the experiment with WM1745 it was 80.8%; in the experiment on WM3526, 103%; with WM3619, 108%; in the experiment on WM451Lu, 108%.

With `Cc1cn(-c2cc(NC(=O)c3ccc(C)c(Nc4nccc(-c5cccnc5)n4)c3)cc(C(F)(F)F)c2)cn1` [nilotinib] + Nc1ccn([C@@H]2O[C@H](CO)[C@@H](O)C2(F)F)c(=O)n1 [gemcitabine] (first compound 0.2 µM, partner dose 0.0004 µM), the cell count with WM115 stood at 111%; in the experiment on WM1716, 97%; in the experiment with WM1745, 86.5%; in the experiment with WM3526, 89.8%; with WM3619, 95.9%; with WM451Lu it was 101%.

Regarding `Cc1cn(-c2cc(NC(=O)c3ccc(C)c(Nc4nccc(-c5cccnc5)n4)c3)cc(C(F)(F)F)c2)cn1` [nilotinib] + C#Cc1cccc(Nc2ncnc3cc(OCCOC)c(OCCOC)cc23)c1 [erlotinib] (first compound 0.2 µM, partner dose 0.8 µM), the cell count came to 103% in the experiment with WM115; 94.2% in the experiment on WM1716; 85.1% in the experiment on WM1745; 106% in the experiment on WM3526; 95.3% with WM3619; 106% with WM451Lu.

Regarding `Cc1cc(Nc2cc(N3CCN(C)CC3)nc(/C=C/c3ccccc3)n2)n[nH]1` + CN1CCN(c2ccc3nc(-c4c(N)c5c(F)cccc5[nH]c4=O)[nH]c3c2)CC1 [Dovitinib] (first compound 0.04 µM, partner dose 0.1 µM), the cell count came out at 110% with WM115; 98.8% in the experiment on WM1716; 89.9% in the experiment on WM1745; 76.5% with WM3526; 106% in the experiment with WM3619; 98.5% with WM451Lu.

`CC(C)C[C@H](NC(=O)[C@H](Cc1ccccc1)NC(=O)c1cnccn1)B(O)O` [Bortezomib] + Nc1cccc2c1CN(C1CCC(=O)NC1=O)C2=O [lenalidomide] (first compound 0.001 µM, partner dose 1 µM): the cell count with WM115 is 93.1%; in the experiment on WM1716, 38.8%; in the experiment with WM1745, 53.3%; in the experiment on WM3526 it was 109%; in the experiment with WM3619, 13.1%; in the experiment on WM451Lu, 109%.

Take `Cn1c(=O)n(-c2ccc(C(C)(C)C#N)cc2)c2c3cc(-c4cnc5ccccc5c4)ccc3ncc21` + OCc1c[nH]c2ccccc12 [Indole-3-carbinol] (first compound 0.004 µM, partner dose 0.8 µM): the cell count was found to be 96% with WM115; 98% with WM1716; 104% with WM1745; 87.7% in the experiment on WM3526; 78.6% with WM3619; 101% in the experiment with WM451Lu.

For the compound `Cc1cc(Nc2cc(N3CCN(C)CC3)nc(/C=C/c3ccccc3)n2)n[nH]1` + Cn1c(=O)n(-c2ccc(C(C)(C)C#N)cc2)c2c3cc(-c4cnc5ccccc5c4)ccc3ncc21 [NVP-BEZ235] (first compound 0.04 µM, partner dose 0.004 µM), the cell count in the experiment with WM115 came out at 91.2%; in the experiment on WM1716, 94.3%; in the experiment with WM1745, 83.8%; in the experiment with WM3526, 87.3%; in the experiment with WM3619, 91.9%; with WM451Lu, 111%.

Consider `COc1ccc(C2=N[C@@H](c3ccc(Cl)cc3)[C@@H](c3ccc(Cl)cc3)N2C(=O)N2CCNC(=O)C2)c(OC(C)C)c1` [Nutlin-3] + COc1ccc(-c2ccc3c(N4CCOCC4)nc(N4C[C@@H](C)O[C@@H](C)C4)nc3n2)cc1CO [KU0063794] (first compound 0.1 µM, partner dose 0.02 µM), for which the cell count in the experiment with WM115 was 75.7%; in the experiment on WM1716, 89%; in the experiment on WM1745, 94.9%; in the experiment with WM3526 it was 84.8%; in the experiment with WM3619, 78.2%; in the experiment with WM451Lu it was 92.9%.

As for `COc1ccc(C2=N[C@@H](c3ccc(Cl)cc3)[C@@H](c3ccc(Cl)cc3)N2C(=O)N2CCNC(=O)C2)c(OC(C)C)c1` [Nutlin-3] + CC(C)(C)c1cnc(CSc2cnc(NC(=O)C3CCNCC3)s2)o1 [SNS-032] (first compound 0.1 µM, partner dose 0.01 µM), the cell count in the experiment on WM115 is 82.2%; in the experiment with WM1716, 78%; in the experiment with WM1745 it was 84.5%; in the experiment with WM3526, 120%; in the experiment with WM3619, 87.3%; in the experiment with WM451Lu, 74.9%.

On to `Cn1c(=O)n(-c2ccc(C(C)(C)C#N)cc2)c2c3cc(-c4cnc5ccccc5c4)ccc3ncc21` + COc1ccc2c(c1)CCC1C2CCC2(C)C(NCCCCCCN3C(=O)C=CC3=O)CCC12 [U73122] (first compound 0.004 µM, partner dose 0.4 µM), for which the cell count in the experiment on WM115 was 79.3%; in the experiment on WM1716, 78.1%; in the experiment on WM1745, 83.4%; in the experiment with WM3526, 86.9%; with WM3619, 106%; in the experiment on WM451Lu, 106%.

In the case of `CC(C)C[C@H](NC(=O)[C@H](Cc1ccccc1)NC(=O)c1cnccn1)B(O)O` [Bortezomib] + c1cc(-c2cnn3cc(-c4ccc(OCCN5CCCCC5)cc4)cnc23)ccn1 [Dorsomorphin] (first compound 0.001 µM, partner dose 0.4 µM), the cell count worked out at 88.1% with WM115; 28.2% in the experiment with WM1716; 58.7% in the experiment with WM1745; 93.8% with WM3526; 15.7% in the experiment on WM3619; 83.8% in the experiment with WM451Lu.
